Some of the results follow. The full chains were built here from the parent and the listed change. Values near 0.05 are background.
B1: TEV protease; numbered along this chain (parent)
chain: MGESLFKGPRDYNPISSSICHLTNESDGHTTSLYGIGFGPFIITNKHLFRRNNGTLVVQSLHGVFKVKDTTTLQQHLVDGRDMIIIRMPKDFPPFPQKLKFREPQREERICLVTTNFQTKSMSSMVSDTSCTFPSGDGIFWKHWIQTKDGQCGSPLVSTRDGFIVGIHSASNFTNTNNYFTSVPKNFMELLTNQEAQQWVSGWRLNADSVLWGGHKVFMVKPEEPFQPVKEATQL

Variants of: B1
Test: raw area under fraction-flipped curve 0-4 h after induction (AUC4h, not background-subtracted), DNA-recorder readout of cleavage of the substrate (dimensionless); higher = more cleavage of the substrate by the protease variant
Details: temperature: 34 °C; time window: 0-4 h after rhamnose induction
Procedure: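 In vivo DNA recorder in E. coli TOP10(DE3) ΔrhaA at 34 °C. Each TEVp single-site mutant (parent TEVp 0) is paired with a single-site variant of the 7-mer TEVs (canonical ENLYFQ|S). The substrate sits between flexible linkers in a Bxb1-sfGFP-TEVs-SsrA fusion, so cleavage stabilises Bxb1 and speeds flipping of a recombination array, read by NGS. The value is the raw area under the fraction-flipped curve over 0-4 h after rhamnose induction (AUC4h), with ≥20 reads per time point. It is not background-subtracted; inactive controls average about 0.047.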
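Note: Bxb1 expression induced with 0.2% (w/v) L-rhamnose at OD600 near 0.5, cultures sampled hourly, flipped fraction per protease–substrate barcode pair counted by paired-end Illumina sequencing.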

Row | Variant | area with substrate ECLYFQS | area with substrate EDLYFQS | area with substrate EELYFQS | area with substrate EMLYFQS | area with substrate EGLYFQS | area with substrate ELLYFQS | area with substrate ETLYFQS | area with substrate EILYFQS | area with substrate EKLYFQS | area with substrate EQLYFQS
1 | MGESLFKGPRDYNPISSSICHLTNESDGHTTSLYGIGFGPFIITNKHLFRRNNGTLVVQSLHGVFKVKDTTTLQQHLVDGRDMIIIRMPKDFPPFPQKLKFREPQREERICLVTTNFQTKSMSSMVSDTSCTFPSGDGIFWKHWIQTKDGQCGSPLVSTRDGFIVGIHSASNFTNTNNYFTSVPKNFMELLTNQEAQQWVSGWRLNADSVLWGGHKVFMVKPEEPFQPVKEAYQL [T233Y] | 0.0786 | 0.0991 | 0.0827 | 0.113 |  |  |  |  |  | 
2 | MGESLFKGPRDYNPISSSICHLTNESDGHTTSLYGIGFGPFIITNKHLFRRNNGTLVVQSLHGVFKVKDTTTLQQHLVDGRDRIIIRMPKDFPPFPQKLKFREPQREERICLVTTNFQTKSMSSMVSDTSCTFPSGDGIFWKHWIQTKDGQCGSPLVSTRDGFIVGIHSASNFTNTNNYFTSVPKNFMELLTNQEAQQWVSGWRLNADSVLWGGHKVFMVKPEEPFQPVKEATQL [M83R] | 0.0477 |  | 0.0502 | 0.0579 | 0.0619 | 0.0439 | 0.0563 |  |  | 
3 | MGESLFKGPRDYNPISSSICHLTNESDGHTTSLYGIGFGPFIITNKHLFRRNNGTLVVQSLHGVFKVKDTTTLQQHLVDGRDMIIIRMPKDFPPFPQKLKFREPQREERICLVTTNFQTKSMSSMVSDTSCTFPSGDGIFWKHWIQTKDGQCGSPLVSTRDGFIVGIHSASNFTQTNNYFTSVPKNFMELLTNQEAQQWVSGWRLNADSVLWGGHKVFMVKPEEPFQPVKEATQL [N175Q] | 0.101 |  |  |  |  |  |  | 0.115 | 0.0913 | 0.139
4 | MGESLFKGPRDYNPISSSICHLTNESDGHTTSLYAIGFGPFIITNKHLFRRNNGTLVVQSLHGVFKVKDTTTLQQHLVDGRDMIIIRMPKDFPPFPQKLKFREPQREERICLVTTNFQTKSMSSMVSDTSCTFPSGDGIFWKHWIQTKDGQCGSPLVSTRDGFIVGIHSASNFTNTNNYFTSVPKNFMELLTNQEAQQWVSGWRLNADSVLWGGHKVFMVKPEEPFQPVKEATQL [G35A] | 0.11 | 0.129 |  |  |  |  |  |  |  | 0.103
5 | MGESLFKGPRDYNPISSSICHLTNESDGHTTSLYGIGFGPFIITNKHLFRRNNGTLVVQSLHGVFKVKDTTTLQQHLVDGRDMVIIRMPKDFPPFPQKLKFREPQREERICLVTTNFQTKSMSSMVSDTSCTFPSGDGIFWKHWIQTKDGQCGSPLVSTRDGFIVGIHSASNFTNTNNYFTSVPKNFMELLTNQEAQQWVSGWRLNADSVLWGGHKVFMVKPEEPFQPVKEATQL [I84V] | 0.121 | 0.136 |  | 0.102 | 0.104 | 0.0827 |  |  | 0.116 | 
6 | MGESLFKGPRDYNPISSSICHLTNESDGHTTSLYGIGFGPFIITNKHLFRRNNGTLVVQSLHGVFKVKDTTTLQQHLVDGRDMIIIRMPKDFPPFPQKLKFREPQREERICLVTTNFQTKSMSSMVSDTSCTFPSGDGIFWKHWIQTKDGQCGSPLVSTRDGFIVGIHSASNFTNTNNYFTSVPKNFMELLTNIEAQQWVSGWRLNADSVLWGGHKVFMVKPEEPFQPVKEATQL [Q194I] | 0.0949 |  |  | 0.102 |  |  |  |  | 0.0815 | 
7 | MGESLFKGPRDYNPISSSICHLTNESDGHTTSLYGIGFGPFIITNKHLFYRNNGTLVVQSLHGVFKVKDTTTLQQHLVDGRDMIIIRMPKDFPPFPQKLKFREPQREERICLVTTNFQTKSMSSMVSDTSCTFPSGDGIFWKHWIQTKDGQCGSPLVSTRDGFIVGIHSASNFTNTNNYFTSVPKNFMELLTNQEAQQWVSGWRLNADSVLWGGHKVFMVKPEEPFQPVKEATQL [R50Y] | 0.142 | 0.152 | 0.163 | 0.22 |  |  | 0.14 |  | 0.149 | 
8 | MGESLAKGPRDYNPISSSICHLTNESDGHTTSLYGIGFGPFIITNKHLFRRNNGTLVVQSLHGVFKVKDTTTLQQHLVDGRDMIIIRMPKDFPPFPQKLKFREPQREERICLVTTNFQTKSMSSMVSDTSCTFPSGDGIFWKHWIQTKDGQCGSPLVSTRDGFIVGIHSASNFTNTNNYFTSVPKNFMELLTNQEAQQWVSGWRLNADSVLWGGHKVFMVKPEEPFQPVKEATQL [F6A] | 0.0656 | 0.0757 |  |  |  |  |  |  |  | 0.0771
9 | MGESLFKGPRDYNPISSSICHLTNESDGHTTSLYGIGFGPFIITNKHLFRRNNGTLVVQSLHGVFKVKDTTTLQQHLVDGRDMIIIRMPKDFPPFPQKLKFREPQREERICLVTTNFQTKSMSSMVSDTSCTFPSGDGIFWKHWIQTKDGQCGSPLVSTRDGYIVGIHSASNFTNTNNYFTSVPKNFMELLTNQEAQQWVSGWRLNADSVLWGGHKVFMVKPEEPFQPVKEATQL [F163Y] | 0.155 |  |  | 0.125 |  |  |  | 0.103 |  | 
10 | MGESLFKGPRDYNPISSSICHLTNESDGHTTSLYGIGFGPFIITNKHLFRRNNGTLVVQSLHGVFKVKDTTTLQQHLVDGRDMIIIRMPKDFPPFPQKLKFREPQREERRCLVTTNFQTKSMSSMVSDTSCTFPSGDGIFWKHWIQTKDGQCGSPLVSTRDGFIVGIHSASNFTNTNNYFTSVPKNFMELLTNQEAQQWVSGWRLNADSVLWGGHKVFMVKPEEPFQPVKEATQL [I110R] | 0.0467 | 0.0618 | 0.0625 |  | 0.058 | 0.0632 |  | 0.0411 | 0.0494 | 0.0417

Same assay, conditions: temperature: 34 °C; time window: 0-4 h after rhamnose induction

Row | Variant | area with substrate EVLYFQS | area with substrate EYLYFQS | area with substrate EPLYFQS | area with substrate ERLYFQS | area with substrate ESLYFQS | area with substrate EWLYFQS | area with substrate EFLYFQS
11 | MGESLFKGPRDYNPISSSICHLTNESDGHTTSLYGIGFGPFIITNKHLFRRNNGTLVVQSLHGVFKVKDTTTLQQHLVDGRDMIIIRMPKDFPPFPQKLKFREPQREERICLVTTNFQTKSMSSMVSDTSCTFPSGDGIFWKHWIQTKDGQCGSPLVSTRDGFIVGIHSASNFTQTNNYFTSVPKNFMELLTNQEAQQWVSGWRLNADSVLWGGHKVFMVKPEEPFQPVKEATQL [N175Q] | 0.142 | 0.132 |  |  |  |  | 
12 | MGESLFKGPRDYNPISSSICHLTNESDGHTTSLYAIGFGPFIITNKHLFRRNNGTLVVQSLHGVFKVKDTTTLQQHLVDGRDMIIIRMPKDFPPFPQKLKFREPQREERICLVTTNFQTKSMSSMVSDTSCTFPSGDGIFWKHWIQTKDGQCGSPLVSTRDGFIVGIHSASNFTNTNNYFTSVPKNFMELLTNQEAQQWVSGWRLNADSVLWGGHKVFMVKPEEPFQPVKEATQL [G35A] | 0.0831 |  |  |  |  |  | 
13 | MGESLFKGPRDYNPISSSICHLTNESDGHTTSLYGIGFGPFIITNKHLFRRNNGTLVVQSLHGVFKVKDTTTLQQHLVDGRDMVIIRMPKDFPPFPQKLKFREPQREERICLVTTNFQTKSMSSMVSDTSCTFPSGDGIFWKHWIQTKDGQCGSPLVSTRDGFIVGIHSASNFTNTNNYFTSVPKNFMELLTNQEAQQWVSGWRLNADSVLWGGHKVFMVKPEEPFQPVKEATQL [I84V] | 0.103 | 0.0855 | 0.133 | 0.107 | 0.149 |  | 
14 | MGESLFKGPRDYNPISSSICHLTNESDGHTTSLYGIGFGPFIITNKHLFRRNNGTLVVQSLHGVFKVKDTTTLQQHLVDGRDMIIIRMPKDFPPFPQKLKFREPQREERICLVTTNFQTKSMSSMVSDTSCTFPSGDGIFWKHWIQTKDGQCGSPLVSTRDGFIVGIHSASNFTNTNNYFTSVPKNFMELLTNIEAQQWVSGWRLNADSVLWGGHKVFMVKPEEPFQPVKEATQL [Q194I] |  | 0.104 | 0.121 |  |  | 0.15 | 
15 | MGESLFKGPRDYNPISSSICHLTNESDGHTTSLYGIGFGPFIITNKHLFYRNNGTLVVQSLHGVFKVKDTTTLQQHLVDGRDMIIIRMPKDFPPFPQKLKFREPQREERICLVTTNFQTKSMSSMVSDTSCTFPSGDGIFWKHWIQTKDGQCGSPLVSTRDGFIVGIHSASNFTNTNNYFTSVPKNFMELLTNQEAQQWVSGWRLNADSVLWGGHKVFMVKPEEPFQPVKEATQL [R50Y] | 0.0836 | 0.128 |  |  | 0.135 |  | 0.109
16 | MGESLAKGPRDYNPISSSICHLTNESDGHTTSLYGIGFGPFIITNKHLFRRNNGTLVVQSLHGVFKVKDTTTLQQHLVDGRDMIIIRMPKDFPPFPQKLKFREPQREERICLVTTNFQTKSMSSMVSDTSCTFPSGDGIFWKHWIQTKDGQCGSPLVSTRDGFIVGIHSASNFTNTNNYFTSVPKNFMELLTNQEAQQWVSGWRLNADSVLWGGHKVFMVKPEEPFQPVKEATQL [F6A] |  | 0.0703 |  |  | 0.0918 |  | 0.0795
17 | MGESLFKGPRDYNPISSSICHLTNESDGHTTSLYGIGFGPFIITNKHLFRRNNGTLVVQSLHGVFKVKDTTTLQQHLVDGRDMIIIRMPKDFPPFPQKLKFREPQREERICLVTTNFQTKSMSSMVSDTSCTFPSGDGIFWKHWIQTKDGQCGSPLVSTRDGYIVGIHSASNFTNTNNYFTSVPKNFMELLTNQEAQQWVSGWRLNADSVLWGGHKVFMVKPEEPFQPVKEATQL [F163Y] | 0.0874 | 0.108 |  | 0.0971 | 0.108 | 0.112 | 
18 | MGESLFKGPRDYNPISSSICHLTNESDGHTTSLYGIGFGPFIITNKHLFRRNNGTLVVQSLHGVFKVKDTTTLQQHLVDGRDMIIIRMPKDFPPFPQKLKFREPQREERRCLVTTNFQTKSMSSMVSDTSCTFPSGDGIFWKHWIQTKDGQCGSPLVSTRDGFIVGIHSASNFTNTNNYFTSVPKNFMELLTNQEAQQWVSGWRLNADSVLWGGHKVFMVKPEEPFQPVKEATQL [I110R] | 0.0392 |  |  | 0.0548 | 0.0542 |  | 

Source: the supplement of paper PMC12217912
